From the supplement of paper PMC4996465
Viability of KB3-1 and Nalm-6 cells after 48 h of drug alone (CellTiter-Glo), 11 doses over about 4.5 log units. % of DMSO wells, lower = more cell loss; AC50 from the fitted curve, lower = more potent. No active / inactive call. Nalm-6 was screened in two runs. AC50 is listed only for well-fitted inhibitory curves. KB3-1 is a HeLa-derived carcinoma line, Nalm-6 a B-cell precursor leukaemia line.

What was measured:
Nalm-6 [1] = test: viability (% of DMSO control); higher = more viable cells
Method: (§1)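 Eleven-dose screen of the NCATS MIPE 3 library on cells without co-treatment; CellTiter-Glo after 48 h, as % of DMSO wells.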

KB3-1 = test: as above
Method: as §1

Nalm-6 [2] = test: log AC50 of viability decrease (48 h) (log10 M); higher = less potent
Method: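 Eleven-dose screen of the NCATS MIPE 3 library on cells without co-treatment; CellTiter-Glo after 48 h. AC50 from the curve fit; only inhibitory curves of the better fit classes are listed.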

Compound	viability (Nalm-6 [1]; run: 1, 0.00078 µM)	viability (Nalm-6 [1]; run: 1, 0.00234 µM)	viability (Nalm-6 [1]; run: 1, 0.00702 µM)	viability (Nalm-6 [1]; run: 1, 0.0211 µM)	viability (Nalm-6 [1]; run: 1, 0.0632 µM)	viability (Nalm-6 [1]; run: 1, 0.19 µM)	viability (Nalm-6 [1]; run: 1, 0.569 µM)	viability (Nalm-6 [1]; run: 1, 1.71 µM)	viability (Nalm-6 [1]; run: 1, 5.12 µM)	viability (Nalm-6 [1]; run: 1, 15.4 µM)	viability (Nalm-6 [1]; run: 1, 46.1 µM)	viability (Nalm-6 [1]; run: 2, 0.00078 µM)	viability (Nalm-6 [1]; run: 2, 0.00234 µM)	viability (Nalm-6 [1]; run: 2, 0.00702 µM)	viability (Nalm-6 [1]; run: 2, 0.0211 µM)	viability (Nalm-6 [1]; run: 2, 0.0632 µM)	viability (Nalm-6 [1]; run: 2, 0.19 µM)	viability (Nalm-6 [1]; run: 2, 0.569 µM)	viability (Nalm-6 [1]; run: 2, 1.71 µM)	viability (Nalm-6 [1]; run: 2, 5.12 µM)	viability (Nalm-6 [1]; run: 2, 15.4 µM)	viability (Nalm-6 [1]; run: 2, 46.1 µM)	viability (KB3-1; 0.00078 µM)	viability (KB3-1; 0.00234 µM)	viability (KB3-1; 0.00702 µM)	viability (KB3-1; 0.0211 µM)	viability (KB3-1; 0.0632 µM)	viability (KB3-1; 0.19 µM)	viability (KB3-1; 0.569 µM)	viability (KB3-1; 1.71 µM)	viability (KB3-1; 5.12 µM)	viability (KB3-1; 15.4 µM)	viability (KB3-1; 46.1 µM)	log AC50 of viability decrease (Nalm-6 [2]; run: 1)	log AC50 of viability decrease (Nalm-6 [2]; run: 2)
CCN(CC)CCCCNc1nc2cc(Cl)c(Cl)cc2nc1-c1ccc(-c2cccs2)s1	107%	121%	133%	131%	117%	117%	129%	108%	102%	49.6%	0.444%	103%	107%	112%	114%	113%	106%	103%	109%	101%	73.1%	0.863%	105%	109%	106%	102%	105%	104%	108%	101%	105%	97.4%	-0.125%	-4.83	-4.73
CN(C)Cc1ccc(-c2nc3cccc4c3n2CCNC4=O)cc1	107%	114%	111%	112%	112%	116%	121%	121%	113%	99.2%	7.74%	110%	101%	106%	104%	109%	112%	111%	108%	102%	91.7%	4.61%	108%	105%	110%	109%	112%	112%	109%	110%	109%	106%	28.4%	-4.63	-4.63
CN(C)CCCNC(=O)c1ccc(-c2cc(O)c3ncccc3c2)cc1	98.8%	104%	107%	99.1%	97.6%	104%	93.5%	93.5%	70.1%	66.1%	4.75%	98.3%	97.8%	106%	108%	102%	111%	106%	99%	81.3%	67.4%	14.1%	101%	102%	98.3%	103%	103%	105%	103%	101%	103%	97%	54.3%	-4.73	-4.78
Cc1nn(Cc2ccccc2Cl)c(C)c1CN(C)CC(O)COc1ccc(Cl)cc1 (stereo not given)	102%	100%	102%	108%	103%	107%	111%	110%	92.6%	92.4%	0.212%	105%	104%	106%	106%	100%	103%	110%	108%	101%	91.9%	0.22%	88%	98.1%	94.2%	93.3%	95.2%	87.5%	95.8%	95.3%	92.4%	94.7%	15.4%	-4.58	-4.58
COc1cc(C)c(Sc2cnc(NC(=O)c3ccc(CNC(C)C(C)(C)C)cc3)s2)cc1C(=O)N1CCN(C(C)=O)CC1 (stereo not given)	101%	110%	105%	99.9%	108%	110%	103%	89.5%	50.4%	45.2%	1.53%	108%	110%	107%	109%	96.3%	109%	104%	90.6%	64.3%	52.7%	2.53%	100%	101%	99.2%	101%	99.5%	98.2%	29%	88.2%	25.3%	20%	47.1%	-4.93	-4.83
CS(=O)(=O)c1cccc(CNc2nc(Nc3ccc4c(c3)CCC(=O)N4)ncc2C(F)(F)F)c1	100%	92.9%	96.7%	104%	114%	116%	99%	63.6%	44%	33.1%	122%	112%	113%	119%	116%	114%	111%	108%	80.7%	73.2%	44.8%	109%	97.7%	108%	97.1%	101%	103%	95.9%	93.8%	93.7%	83.3%	72.8%	114%	-5.83	-5.33
C[C@H]1CN(C[C@@H](C)O1)CC(=O)NC2=CC=C3SC4=C(CC3=C2)C=CC=C4\C5=C\C(=O)\C=C(/O5)N6CCOCC6	101%	102%	97.1%	110%	102%	104%	111%	94.7%	83.8%	75.3%	10.6%	105%	101%	107%	109%	111%	111%	114%	111%	96.6%	54.7%	3.03%	96.5%	96.4%	97.7%	98.5%	97%	98.1%	99.7%	95.9%	93.3%	91.7%	41.7%	-4.68	-4.78
